Results from article PMC3317675 (International Journal of Molecular Sciences, 2012).

Tests used:
Type in all cases: cell-based
mGAT1 = mGAT1 (Mus musculus, UniProt P31648); experiment: [3H]GABA uptake inhibition, stable CHO cells; set-up: gene Slc6a1; full-length ORF in pcDNA3; no tag mentioned
mGAT2 = target: T1, mGAT2 (Mus musculus, UniProt P31649); experiment: [3H]GABA uptake inhibition, stable CHO cells; set-up: gene Slc6a13; RIKEN FANTOM cDNA in pcDNA3; no tag mentioned
T1 sequence (P31649 1-602): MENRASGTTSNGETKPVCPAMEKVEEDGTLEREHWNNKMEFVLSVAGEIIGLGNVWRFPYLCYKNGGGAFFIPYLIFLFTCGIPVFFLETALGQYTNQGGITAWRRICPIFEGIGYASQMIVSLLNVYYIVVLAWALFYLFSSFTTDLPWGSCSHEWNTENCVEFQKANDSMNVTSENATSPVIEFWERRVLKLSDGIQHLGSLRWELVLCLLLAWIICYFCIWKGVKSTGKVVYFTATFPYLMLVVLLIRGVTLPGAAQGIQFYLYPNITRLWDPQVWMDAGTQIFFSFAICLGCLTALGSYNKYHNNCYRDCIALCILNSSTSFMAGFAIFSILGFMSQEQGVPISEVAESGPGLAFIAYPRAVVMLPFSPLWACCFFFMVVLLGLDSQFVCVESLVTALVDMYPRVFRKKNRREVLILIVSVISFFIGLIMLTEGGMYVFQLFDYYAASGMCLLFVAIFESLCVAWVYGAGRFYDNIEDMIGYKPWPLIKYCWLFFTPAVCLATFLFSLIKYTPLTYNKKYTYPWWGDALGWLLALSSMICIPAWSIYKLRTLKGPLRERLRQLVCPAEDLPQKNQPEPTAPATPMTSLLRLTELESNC

mGAT3 = target: T2, mGAT3 (Mus musculus, UniProt P31650); experiment: [3H]GABA uptake inhibition, stable CHO cells; set-up: gene Slc6a11; RIKEN FANTOM cDNA in pcDNA3; no tag mentioned
T2 sequence (P31650 1-627): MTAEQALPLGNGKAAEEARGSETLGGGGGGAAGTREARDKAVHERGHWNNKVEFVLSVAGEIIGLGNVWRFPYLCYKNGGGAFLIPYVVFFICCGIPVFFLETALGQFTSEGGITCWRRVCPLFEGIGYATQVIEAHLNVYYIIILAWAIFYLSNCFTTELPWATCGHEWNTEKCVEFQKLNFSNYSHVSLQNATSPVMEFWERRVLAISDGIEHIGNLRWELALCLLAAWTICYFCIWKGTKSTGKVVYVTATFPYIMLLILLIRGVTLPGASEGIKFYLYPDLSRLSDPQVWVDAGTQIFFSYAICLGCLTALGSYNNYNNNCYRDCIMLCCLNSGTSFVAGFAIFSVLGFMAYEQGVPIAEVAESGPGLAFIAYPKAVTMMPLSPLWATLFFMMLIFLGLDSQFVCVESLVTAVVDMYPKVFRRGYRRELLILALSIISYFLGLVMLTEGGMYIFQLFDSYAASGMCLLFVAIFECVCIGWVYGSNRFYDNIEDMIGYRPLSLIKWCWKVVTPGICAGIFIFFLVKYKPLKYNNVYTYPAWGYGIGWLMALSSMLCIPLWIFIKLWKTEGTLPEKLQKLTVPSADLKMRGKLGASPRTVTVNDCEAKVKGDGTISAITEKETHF

rSERT = target: T3, rSERT (Rattus norvegicus, UniProt P31652); experiment: [3H]5-HT uptake inhibition, stable CHO cells
T3 construct: gene Slc6a4; previously cloned cDNA; no tag mentioned
T3 sequence (P31652 whole entry): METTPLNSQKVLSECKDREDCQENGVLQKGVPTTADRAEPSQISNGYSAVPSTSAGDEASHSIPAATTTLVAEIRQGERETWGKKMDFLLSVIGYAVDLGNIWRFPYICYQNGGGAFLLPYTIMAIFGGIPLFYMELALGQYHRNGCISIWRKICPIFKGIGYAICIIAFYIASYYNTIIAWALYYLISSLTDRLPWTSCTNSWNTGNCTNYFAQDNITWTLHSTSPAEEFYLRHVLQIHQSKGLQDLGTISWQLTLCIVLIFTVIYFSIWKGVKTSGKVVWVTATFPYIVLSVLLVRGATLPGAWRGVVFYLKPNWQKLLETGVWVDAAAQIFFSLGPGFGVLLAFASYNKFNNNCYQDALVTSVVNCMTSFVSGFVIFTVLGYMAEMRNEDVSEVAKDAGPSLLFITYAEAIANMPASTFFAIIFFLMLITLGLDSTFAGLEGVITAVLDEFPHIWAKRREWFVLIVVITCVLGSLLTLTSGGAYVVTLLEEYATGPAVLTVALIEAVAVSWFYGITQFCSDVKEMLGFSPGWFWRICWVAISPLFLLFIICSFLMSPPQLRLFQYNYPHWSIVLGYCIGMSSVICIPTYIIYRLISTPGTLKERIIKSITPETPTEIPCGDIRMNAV

Row | SMILES | IC50 (mGAT1) [µM] | IC50 (mGAT2) [µM] | IC50 (mGAT3) [µM] | IC50 (rSERT) [µM]
1 | CNCCCC12CCC(c3ccccc31)c1ccccc12 [Maprotilline] | 124 ± 8.4 | 98 | 106 | 
2 | CN(C)CCCN1c2ccccc2CCc2ccc(Cl)cc21 [Clomipramine] | 93.3 ± 39.8 | 41.8 | 40.2 | 
3 | CN(C)CCC=C1c2ccccc2COc2ccccc21 [Doxepine] | 222 ± 14.7 | 129 | 115 | 
4 | CN1CCN2c3ccccc3Cc3ccccc3C2C1 (stereo not shown) [Mianserine] | 222 ± 9.9 | 131 | 91 | 
5 | Clc1ccc2c(c1)C(N1CCNCC1)=Nc1ccccc1O2 [Amoxapine] | 288 ± 80.5 | 135 | 195 | 1.62
